PubChem BioAssay AID179 (DTP/NCI, 2004)
Some entries of the source have several records that differ or are many. This list holds those alone. The source may hold further records. The records of an entry are repeats in other runs, samples, wells, individuals or studies. Records carry a tag for their origin. A, B and so on number the origins entry by entry.

Tested on: CEM cells HIV-1 protection, formazan growth assay
Assay: NCI AIDS Antiviral Assay
Conditions: for IC50: measured here: growth of uninfected CEM cells
Summary of the method: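 Human CEM cells, uninfected and HIV-1-infected, exposed to five drug concentrations; growth measured by soluble formazan assay and scored as percent protection from infection, with protecting compounds retested.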

`Fc1cccc(F)c1C1SCc2nc3ccccc3n21` (centres undefined) was tested, and the EC50 was 3.09 µM [sample A] and 7.24 µM [sample B] and 363 nM [sample C].

In the case of `O=[N+]([O-])c1ccc2[nH]c(=S)[nH]c(=S)c2c1`, the IC50 is reported as > 200 µM [sample A] and 9.33 µM [sample B].

With `Nc1ncnc2c(C3OC(CO)C(O)C3O)nsc12` (centres undefined) the IC50 was 2.51 nM [sample A] and 16.2 µM [sample B].

In the case of `O=C(NNC(=S)NC1OC(CO)C(O)C(O)C1O)c1cccc(C(=O)NNC(=S)NC2OC(CO)C(O)C(O)C2O)n1` (centres undefined), the EC50 is reported as 16.2 µM [sample A] and > 200 µM [sample B].
